Experimental findings from patent US12226490B2, “Anti-ROR1 antibody conjugates, compositions comprising anti ROR1 antibody conjugates, and methods of making and using anti-ROR1 antibody conjugates preliminary class” (Sutro Biopharma, Inc., priority 2022, dated 2025) are described below.

One assay relates to MDA-MB-231 tumor. Nature of the assay: MDA-MB-231 TNBC xenograft model. Particulars: Example 20; day 42; any of the tested doses (2 mg/kg to 5 mg/kg qw×4). It is filed as in vivo, SCID/beige mice. As for the experimental part: The activities of ROR1-targeted ADCs described herein were examined in a MDA-MB-231 TNBC xenograft model. Briefly, SCID/beige mice were implanted subcutaneously with 5×10^6 MDA-MB-231 tumor cells in the mammary fat pad and randomized and enrolled into the study 7 days post implant, with tumor sizes around 130 mm^3. Tumor-bearing mice were administered four weekly doses (qw×4) of the test articles at doses ranging from 2 mg/kg to 5 mg/kg. All treatments were well tolerated with normal body weight gain throughout the course of the study.
SCID/beige mice were implanted subcutaneously with 5×10^6 MDA-MB-231 tumor cells in the mammary fat pad and randomized and enrolled into the study 7 days post implant, with tumor sizes around 130 mm^3. Tumor-bearing mice were administered four weekly doses (qw×4) of the test articles at doses ranging from 2 mg/kg to 5 mg/kg. All treatments were well tolerated with normal body weight gain throughout the course of the study.
SCID/beige mice were implanted subcutaneously with 5×10^6 MDA-MB-231 tumor cells in the mammary fat pad and randomized and enrolled into the study 7 days post implant, with tumor sizes around 130 mm^3. Tumor-bearing mice were administered three weekly doses (qw×3) of the test articles at doses ranging from 2 mg/kg to 5 mg/kg. All treatments were well tolerated with normal body weight gain throughout the course of the study. […]

A further assay concerns ROR1 negative MCF7 cells. Nature of the assay: In vitro cell killing of ROR1 ADCs, ROR1 negative cells (Cell Titer-Glo, 120 hours). The format is cell-based, human. Particulars: second Table 14. An excerpt:
Ntera-2, MDA-MB-231, MCF7, HCT116 and Mino cells were obtained from ATCC. HCT116-hRor1-D02 clone was generated by transfecting HCT116 cells with a plasmid containing human Ror1 cDNA sequence and selected for highest stable expression of hRor1 on the cell surface. MDA-MB-231, MCF7, HCT116 and HCT116-Ror1 cell were maintained in Ham's F-12 high glucose DMEM (50-50) (Cellgro-Mediatech; Manassas, VA) supplemented with 10% heat-inactivated fetal bovine serum (Hyclone; Thermo Scientific; Waltham, MA), 1% Penicillin/Streptomycin (Cellgro-Mediatech; Manassas, VA) and 2 mmol/L-glutamax (Life Technology; Carlsbad, CA). […]
Anti-ROR1 antibody was conjugated to different linker-warheads described herein at different DARs and the cell killing activity of the ADCs were evaluated on ROR1 positive Ntera-2 cell and ROR1 negative MCF7 cells.
Ntera-2 or MCF7 cell at 625 cells/25 μL were seeded in a 384-well flat bottom white polystyrene plate one day before the assay start. […] Relative luminescence was measured on an ENVISION® plate reader (Perkin-Elmer; Waltham, MA). Relative luminescence readings were converted to % viability using untreated cells as controls. […]

B1: Conjugate 1 (conjugate)
heavy: MEVQLVESGGGLVQPGGSLRLSCAASGFNISDYDIHWVRQAPGKGLEWVGGIDPADGSTDYADSVKGRFTISADTSKNTAYLQMNSLRAEDTAVYYCARDYGVYDYWGQGTLVTVSSASTKGPSVFPLAPSSKSTSGGTAALGCLVKDYFPEPVTVSWNSGALTSGVHTFPAVLQSSGLSLSSVVTVPSSSLGTQTYICNVNHKPSNTKVDKKVEPKSCDKTHTCPPCPAPELLGGPSVFLFPPKPKDTLMISRTPEVTCVVVDVSHEDPEVKFNWYVDGVEVHNAKTKPREEQYNSTYRVVSVLTVLHQDWLNGKEYKCKVSNKALPAPIEKTISKAKGQPREPQVYTLPPSREEMTKNQVSLTCLVKGFYPSDIAVEWESNGQPENNYKTTPPVLDSDGSFLYSKLTVDKSRWQQGNVFSCSVMHEALHNHYTQKSLSLSPGK
light: [about 200 residues cut from this listing]
Take B1: in the assay on MDA-MB-231 tumor, the “TGI compared to the vehicle-treated group” value was “did not demonstrate significant TGI”.

B2: Conjugate 5 (conjugate)
heavy: MEVQLVESGGGLVQPGGSLRLSCAASGFNISDYDIHWVRQAPGKGLEWVGGIDPADGSTDYADSVKGRFTISADTSKNTAYLQMNSLRAEDTAVYYCARDYGVYDYWGQGTLVTVSSASTKGPSVFPLAPSSKSTSGGTAALGCLVKDYFPEPVTVSWNSGALTSGVHTFPAVLQSSGLYSLSSVVTVPSSSLGTQTYICNVNHKPSNTKVDKKVEPKSCDKTHTCPPCPAPELLGGPSVFLFPPKPKDTLMISRTPEVTCVVVDVSHEDPEVKFNWYVDGVEVHNAKTKPREEQYNSTYRVVSVLTVLHQDWLNGKEYKCKVSNKALPAPIEKTISKAKGQPREPQVYTLPPSREEMTKNQVSLTCLVKGFYPSDIAVEWESNGQPENNYKTTPPVLDSDGSFLYSKLTVDKSRWQQGNVFSCSVMHEALHNHYTQKSLSLSPGK
light: [about 200 residues cut from this listing]
Regarding B2, the “MCF-7 Span” value in the assay with ROR1 negative MCF7 cells was under 20%.
